Measured values as given in the supplement of paper PMC6609913.
Structures can show the parent of a compound that is named as a salt. ± gives the standard deviation of the averaged measurements. In all, about 1,300 compounds were measured (“normalised cell viability”: median about 1, lowest 2% from about 0.15 on). This is one part of the list.

Tested on: V-C8 + BRCA2 (BRCA2-proficient hamster cells)
Assay: normalised cell viability (fraction of plate median); higher = more viable cells (less toxic)
Conditions: 5 µM
In short: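 Library drugs, held as 10 mM stocks in DMSO, were diluted to 5 μM in 100 μl medium and added to 96-well plates of V-C8 hamster cells, either lacking BRCA2 or with BRCA2 restored, 24 h after seeding. Plates ran for 3 days (screen 1) or 6 days (screen 2), alongside solvent-only wells. Viability came from a resazurin readout, median-plate normalised, as the mean of triplicate wells.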

Structure (SMILES) | normalised cell viability (treatment time: 3 days) | normalised cell viability (treatment time: 6 days)
Cn1c(=O)c2c(ncn2C)n(C)c1=O [Caffeine] | 0.998 ± 0.053 | 0.996 ± 0.057
CC(C)(C)NCC(O)c1ccc(O)c(CO)c1 (stereo unspecified) [Salbutamol] | 1.07 ± 0.035 | 1.09 ± 0.076
O=C(O[C@@H]1C[C@@H]2C[C@H]3C[C@H](C1)N2CC3=O)c1c[nH]c2ccccc12 [Dolasetron mesilate] | 1.06 ± 0.19 | 1.02 ± 0.03
CC(C)(C)NC(=O)[C@@H]1CN(Cc2cccnc2)CCN1C[C@@H](O)C[C@@H](Cc1ccccc1)C(=O)N[C@H]1c2ccccc2C[C@H]1O [Indinavir sulfate] | 1.009 ± 0.0049 | 1.03 ± 0.066
COC(=O)Nc1nc2cc(C(=O)c3ccc(F)cc3)ccc2[nH]1 [Flubendazol] | 0.168 ± 0.017 | 0.167 ± 0.0085
O=C(NCC1CCCCN1)c1cc(OCC(F)(F)F)ccc1OCC(F)(F)F (stereo unspecified) [Flecainide acetate] | 1.12 ± 0.066 | 1.02 ± 0.12
CC1CCc2cc(F)cc3c(=O)c(C(=O)O)cn1c23 (stereo unspecified) [Flumequine] | 1.03 ± 0.022 | 1.049 ± 0.0068
CCCCOc1ccc(OCCCN2CCOCC2)cc1 [Pramoxine hydrochloride] | 1.09 ± 0.025 | 1.06 ± 0.069
CC(C)[C@H]1CC[C@H](C(=O)N[C@H](Cc2ccccc2)C(=O)O)CC1 [Nateglinide] | 1.04 ± 0.051 | 1.04 ± 0.091
CC(C)c1nc(CN(C)C(=O)N[C@H](C(=O)N[C@@H](Cc2ccccc2)C[C@H](O)[C@H](Cc2ccccc2)NC(=O)OCc2cncs2)C(C)C)cs1 [Ritonavir] | 1.01 ± 0.048 | 0.96 ± 0.049
COc1ccccc1OCCNCC(O)COc1cccc2[nH]c3ccccc3c12 (stereo unspecified) [Carvedilol] | 0.815 ± 0.045 | 0.887 ± 0.065
COc1cc(N)c(Cl)cc1C(=O)NC1CCN(Cc2ccccc2)CC1 [Clebopride maleate] | 1 ± 0.027 | 1.06 ± 0.052
Nc1nc(N)nc(-c2cc(Cl)ccc2Cl)n1 [Irsogladine maleate] | 0.254 ± 0.065 | 0.2 ± 0.015
CCN1CCCC1CNC(=O)c1cc(S(=O)(=O)CC)c(N)cc1OC (stereo unspecified) [Amisulpride] | 0.974 ± 0.017 | 0.991 ± 0.058
CC(CN1c2ccccc2Sc2ccccc21)N(C)C (stereo unspecified) [Promethazine hydrochloride] | 0.926 ± 0.19 | 0.949 ± 0.043
NS(=O)(=O)c1cc2c(cc1C(F)(F)F)NC(Cc1ccccc1)NS2(=O)=O (stereo unspecified) [Bendroflumethiazide] | 0.992 ± 0.096 | 1.03 ± 0.032
O=C(c1ccc(OCCN2CCCCC2)cc1)c1c(-c2ccc(O)cc2)sc2cc(O)ccc12 [Raloxifene hydrochloride] | 0.81 ± 0.027 | 0.958 ± 0.092
CCn1cc(C(=O)O)c(=O)c2cc(F)c(N3CCNCC3)cc21 [Norfloxacin] | 1.05 ± 0.042 | 1.06 ± 0.044
CCOC(=O)C1=C(C)NC(C)=C(C(=O)OC)C1c1cccc([N+](=O)[O-])c1 (stereo unspecified) [Nitrendipine] | 1.01 ± 0.0043 | 1.05 ± 0.017
CC1=C(C(=O)O)N2C(=O)[C@@H](NC(=O)[C@H](N)c3ccc(O)cc3)[C@H]2SC1 [Cefadroxil] | 1.07 ± 0.014 | 1.12 ± 0.066
C=CCN1CCCC1CNC(=O)c1cc2nn[nH]c2cc1OC (stereo unspecified) [Alizapride HCl] | 1.018 ± 0.0094 | 1.08 ± 0.05
CC(C)(Oc1ccc(C2CC2(Cl)Cl)cc1)C(=O)O (stereo unspecified) [Ciprofibrate] | 1.02 ± 0.024 | 1 ± 0.057
CCC(C)(CN(C)C)OC(=O)c1ccccc1 (stereo unspecified) [Amyleine hydrochloride] | 1.03 ± 0.046 | 0.997 ± 0.019

Structure (SMILES) | normalised cell viability (treatment time: 3 days) | normalised cell viability (treatment time: 6 days)
CC(=C(CCO)SSCC1CCCO1)N(C=O)Cc1cnc(C)nc1N (stereo in doubt) [Fursultiamine Hydrochloride] | 0.998 ± 0.013 | 1.07 ± 0.031
C=C(NC(=O)C(=C)NC(=O)c1csc(C2=N[C@@H]3c4csc(n4)[C@H]4NC(=O)c5csc(n5)[C@H]([C@](C)(O)[C@@H](C)O)NC(=O)[C@H]5CSC(=N5)/C(=C/C)NC(=O)[C@H]([C@@H](C)O)NC(=O)c5csc(n5)[C@]3(CC2)NC(=O)[C@H](C)NC(=O)C(=C)NC(=O)[C@H](C)NC(=O)[C@H]([C@@H](C)CC)N[C@@H]2C=Cc3c([C@H](C)O)cc(nc3[C@H]2O)C(=O)O[C@@H]4C)n1)C(N)=O [Thiostrepton] | 0.135 ± 0.0082 | 0.126 ± 0.013
Cn1c(=O)c2c(ncn2CC(O)CO)n(C)c1=O (stereo unspecified) [Diprophylline] | 1.06 ± 0.053 | 1.01 ± 0.061
NC(=O)c1cccnc1 [Nicotinamide] | 0.943 ± 0.029 | 1.1 ± 0.025
CNC1(C)C2CCC(C2)C1(C)C (stereo unspecified) [Mecamylamine hydrochloride] | 0.885 ± 0.054 | 0.946 ± 0.072
CCC(C)(C)c1ccc(CC(C)CN2C[C@@H](C)O[C@@H](C)C2)cc1 (stereo partly specified) [Amorolfine hydrochloride] | 0.981 ± 0.028 | 1.08 ± 0.076
CC[C@]12CCCN3CCc4c(n(c5ccccc45)[C@@](O)(C(=O)OC)C1)[C@@H]32 [Vincamine] | 1.09 ± 0.059 | 1.03 ± 0.041
Nc1ccc(S(N)(=O)=O)cc1 [Sulfanilamide] | 0.997 ± 0.042 | 0.9 ± 0.092
CNCC[C@@H](Oc1cccc2ccccc12)c1cccs1 [(R)-Duloxetine hydrochloride] | 0.882 ± 0.015 | 0.935 ± 0.1
CC(CCc1ccc(O)cc1)NCCc1ccc(O)c(O)c1 (stereo unspecified) [Dobutamine hydrochloride] | 1.05 ± 0.053 | 0.953 ± 0.022
CCSc1ccc2c(c1)N(CCCN1CCN(C)CC1)c1ccccc1S2 [Thiethylperazine dimalate] | 0.942 ± 0.079 | 0.958 ± 0.028
Cc1c(O)cccc1C(=O)N[C@@H](CSc1ccccc1)[C@H](O)CN1C[C@H]2CCCC[C@H]2C[C@H]1C(=O)NC(C)(C)C [Nelfinavir mesylate] | 0.845 ± 0.052 | 0.909 ± 0.074
CN(C)CCC(c1ccccc1)c1ccccn1 (stereo unspecified) [Pheniramine maleate] | 1.02 ± 0.05 | 0.987 ± 0.031
C=CCc1ccccc1OCC(O)CNC(C)C (stereo unspecified) [Alprenolol hydrochloride] | 1 ± 0.063 | 0.926 ± 0.056
NC[C@H]1CC[C@H](C(=O)O)CC1 [Tranexamic acid] | 1.047 ± 0.0045 | 0.993 ± 0.025
CCCCOc1ccc(CC(=O)NO)cc1 [Bufexamac] | 0.921 ± 0.016 | 0.864 ± 0.04
CC(=O)OC(C)C[N+](C)(C)C (stereo unspecified) [Methacholine chloride] | 1.11 ± 0.036 | 0.9867 ± 0.0014
Cc1ccc(O)c([C@H](CCN(C(C)C)C(C)C)c2ccccc2)c1 [Tolterodine tartrate] | 1.05 ± 0.062 | 0.965 ± 0.053
O=C(O)c1cc(=O)c2c(OCC(O)COc3cccc4oc(C(=O)O)cc(=O)c34)cccc2o1 [Cromolyn disodium salt] | 1.01 ± 0.02 | 1.03 ± 0.034
Clc1ccc(COC(Cn2ccnc2)c2ccc(Cl)cc2Cl)cc1 (stereo unspecified) [Econazole nitrate] | 1 ± 0.025 | 1.04 ± 0.049
Clc1ccccc1C(c1ccccc1)(c1ccccc1)n1ccnc1 [Clotrimazole] | 0.646 ± 0.029 | 0.75 ± 0.069
C=CC[N@@+]12CC[C@@]34c5ccccc5N5/C=C6/[C@H]7C[C@H]8[C@@]9(CC[N@@+]8(CC=C)C/C7=C/CO)c7ccccc7N(/C=C(/[C@@H](C[C@@H]31)/C(=C\CO)C2)[C@H]54)[C@@H]69 [Alcuronium chloride] | 1.03 ± 0.023 | 1 ± 0.09
CCCC(C(=O)OCCN(CC)CC)(c1ccccc1)c1ccccc1 [Proadifen hydrochloride] | 0.919 ± 0.024 | 0.908 ± 0.052

Structure (SMILES) | normalised cell viability (treatment time: 3 days) | normalised cell viability (treatment time: 6 days)
O=P(O)(O)C(O)(Cc1cccnc1)P(=O)(O)O [Risedronic acid monohydrate] | 1.06 ± 0.022 | 1.01 ± 0.059
CCN(CC)C(=O)N1CCN(C)CC1 [Diethylcarbamazine citrate] | 1.08 ± 0.045 | 1.08 ± 0.048
CCN(CCCc1ccccc1)CCCc1ccccc1 [Alverine citrate salt] | 0.97 ± 0.072 | 0.968 ± 0.024
CC(C)C(=O)c1c(C(C)C)nn2ccccc12 [Ibudilast] | 0.987 ± 0.062 | 0.981 ± 0.061
CC(C)NCC(O)COc1cccc2[nH]ccc12 (stereo unspecified) [Pindolol] | 0.918 ± 0.051 | 1.02 ± 0.029
OC(CCN1CCCC1)(c1ccccc1)C1CCCCC1 (stereo unspecified) [Procyclidine hydrochloride] | 0.981 ± 0.047 | 0.987 ± 0.012
CC(CN(C)C)CN1c2ccccc2CCc2ccccc21 (stereo unspecified) [Trimipramine maleate salt] | 1.05 ± 0.052 | 0.979 ± 0.046
CCCCOc1ccc(C(=O)CCN2CCCCC2)cc1 [Dyclonine hydrochloride] | 0.962 ± 0.018 | 1.06 ± 0.1
C=C1C(=O)O[C@H]2[C@H]1CC/C(C)=C/CC[C@@]1(C)O[C@@H]21 [Parthenolide] | 0.171 ± 0.0068 | 0.292 ± 0.096
Cn1nnc2c(C(N)=O)ncn2c1=O [Temozolomide] | 1.06 ± 0.022 | 0.926 ± 0.086
CC(C)(C)NC(=O)[C@H]1CC[C@H]2[C@@H]3CC[C@H]4NC(=O)C=C[C@]4(C)[C@H]3CC[C@]12C [Finasteride] | 0.918 ± 0.052 | 0.983 ± 0.06
Nc1nc(N)c2nc(-c3ccccc3)c(N)nc2n1 [Triamterene] | 0.938 ± 0.015 | 0.794 ± 0.02
CC[C@H](c1ccc(O)cc1)[C@@H](CC)c1ccc(O)cc1 [Hexestrol] | 0.9735 ± 0.0097 | 0.944 ± 0.19
Cc1c(Nc2ncccc2C(=O)O)cccc1C(F)(F)F [Flunixin meglumine] | 1.03 ± 0.033 | 1.01 ± 0.067
CN(Cc1cc(Br)cc(Br)c1N)C1CCCCC1 [Bromhexine hydrochloride] | 0.949 ± 0.042 | 1.02 ± 0.072
C[C@H](CS)C(=O)N1CCC[C@H]1C(=O)O [Captopril] | 0.973 ± 0.025 | 1.01 ± 0.048
CC1(C)O[C@@H]2C[C@H]3[C@@H]4C[C@H](F)C5=CC(=O)C=C[C@]5(C)[C@H]4[C@@H](O)C[C@]3(C)[C@]2(C(=O)CO)O1 [Flunisolide] | 1.03 ± 0.067 | 1.07 ± 0.073
NCCc1ccc(O)c(O)c1 [Dopamine hydrochloride] | 1.01 ± 0.027 | 1 ± 0.041
CCN1CCCC1CNC(=O)c1cc(S(N)(=O)=O)ccc1OC (stereo unspecified) [Sulpiride] | 1.13 ± 0.028 | 1.02 ± 0.02
COc1ccc(-c2ccc3cc(C(=O)O)ccc3c2)cc1C12CC3CC(CC(C3)C1)C2 [Adapalene] | 0.313 ± 0.0073 | 0.441 ± 0.011
O=C(O)c1cccnc1 [Niacin] | 1.07 ± 0.21 | 1.01 ± 0.013
CCCCc1oc2ccccc2c1C(=O)c1cc(I)c(OCCN(CC)CC)c(I)c1 [Amiodarone hydrochloride] | 0.729 ± 0.057 | 0.753 ± 0.047
